Results as given in PubChem BioAssay AID588342 (National Center for Advancing Translational Sciences (NCATS), 2011).
About 25,000 (6.9%) of roughly 360,000 compounds were called active. Inconclusive means that the source gave no clear call. Such entries were picked first, then a sample of the others. The call rests on the fitted dose curve; in most records, active means well fitted inhibition curve with a large enough effect; inconclusive means small, poorly fitted or top-dose-only effect; inactive means flat fitted curve, though single readings scatter. Potencies of inconclusive entries are doubtful fits and often do not repeat.

biological target: Luciferin 4-monooxygenase (Photinus pyralis) (UniProt P08659); assay: qHTS profiling assay for firefly luciferase inhibitor/activator using purifed enzyme and Km concentrations of substrates (counterscreen for miR-21 project); settings: purified FLuc, luminescence inhibition; activity change, negative = inhibition: at 57.5 µM (top of the series); further: nearly all actives have a fitted effect of over 55% in size;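 on activity change, negative = inhibition: plate controls were vehicle for no effect and reference inhibitor for full effect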
UniProt P08659, sequence (P08659 whole entry, looked up): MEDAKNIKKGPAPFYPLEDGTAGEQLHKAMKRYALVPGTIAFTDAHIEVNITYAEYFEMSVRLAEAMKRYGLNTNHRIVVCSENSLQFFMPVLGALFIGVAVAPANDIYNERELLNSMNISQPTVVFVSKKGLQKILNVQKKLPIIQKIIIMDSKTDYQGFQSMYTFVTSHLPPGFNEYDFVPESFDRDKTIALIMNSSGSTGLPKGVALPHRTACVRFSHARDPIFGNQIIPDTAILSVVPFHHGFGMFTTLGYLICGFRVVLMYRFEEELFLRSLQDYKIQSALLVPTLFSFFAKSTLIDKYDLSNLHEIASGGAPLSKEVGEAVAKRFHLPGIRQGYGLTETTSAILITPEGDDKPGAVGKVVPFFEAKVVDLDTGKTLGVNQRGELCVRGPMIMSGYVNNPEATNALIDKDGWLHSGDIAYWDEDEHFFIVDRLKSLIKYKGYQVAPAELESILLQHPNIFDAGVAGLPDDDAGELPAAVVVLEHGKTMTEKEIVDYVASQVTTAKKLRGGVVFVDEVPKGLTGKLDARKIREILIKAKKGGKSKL
Summary of the method: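 Purified P. pyralis luciferase, 10 nM final, with Km-level 10 uM D-luciferin and 10 uM ATP in 50 mM Tris acetate pH 7.5, 10 mM Mg acetate, 0.01% Tween-20, 0.05% BSA; 6-point qHTS titration about 60 µM downward; luminescence read.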
Potency means the concentration at half of the fitted maximal effect; tags describe the fitted curve by direction and shape.

SMILES | Potency | activity change, negative = inhibition
Cc1cc(NC(=O)Nc2cccc(Cl)c2)n(-c2ccccn2)n1 | inconclusive: 30.1 µM [inhibitor, partial curve, poor fit] | –
N#Cc1cc2c(nc1SC1CC(=O)N(c3ccccc3)C1=O)CCC2 (stereo unspecified) | active: 10.7 µM | –
CCN1C(=O)C(=O)N(CC(=O)c2cc(C)n(C3CC3)c2C)C1=O | inconclusive: 15.1 µM [inhibitor, partial curve, poor fit] | –
CC(C)(C)OC(=O)N[C@@H](Cc1ccccc1)[C@H](O)c1ccco1 | – | inactive: 5.53%
O=C(Nc1ccccc1C(=O)O)/C(=C/c1ccc(Cl)cc1Cl)NC(=O)c1ccco1 | – | inactive: -3.17%
CC(=O)c1cccc(NC(=S)NC(=O)c2ccccc2Br)c1 | active: 16.9 µM | –
CCOC(=O)c1c(NC(=O)C2C3C=CC(C3)C2C(=O)O)sc2c1CC(C)CC2 (stereo unspecified) | inconclusive: 37.9 µM [inhibitor, partial curve, poor fit] | –
COc1ccc([C@H]2CC(=O)C=C(c3ccc(Cl)c(F)c3)C2)cc1 | – | inactive: -1.54%
Cc1ccccc1CC(=O)Nc1ccc2c(c1)CCC2 | inconclusive: 10.7 µM [inhibitor, partial curve, poor fit] | –
Oc1ccc(-c2nc3ccccn3c2Nc2ccc3c(c2)OCCO3)cc1 | active: 19 µM | –
O=C(CSc1nnc(-c2ccc(F)cc2)o1)N1CCCC1 | inconclusive: 19 µM [inhibitor, partial curve, poor fit] | –
COc1ccc(C(C)(C)C)cc1NC(=O)c1ccc2ncsc2c1 | inconclusive: 37.9 µM [inhibitor, single point] | –
O=C(COc1ccccc1Br)NC1CCCC1 | inconclusive: 16.9 µM [inhibitor, partial curve] | –
CCOC(=O)Cc1cc(-c2ccccc2)nc2ccc3ccccc3c12 | inconclusive: 23.9 µM [inhibitor, partial curve] | –
O=C(O)COc1ccccc1/C=N/NC(=O)c1cccc(S(=O)(=O)Nc2cccc(Cl)c2)c1 | inconclusive: 19 µM [inhibitor, partial curve] | –
O=C(Nc1ccc(CN2CCOCC2)cc1)c1cc2ccccn2n1 | active: 1.2 µM | –
Cc1nc2ccc(Cl)cc2nc1C | – | inactive: -11.7%
CC(Sc1nc2sc3c(c2c(=O)n1-c1ccccc1)CCCC3)C(=O)O (stereo unspecified) | inconclusive: 21.3 µM [inhibitor, partial curve, poor fit] | –
COc1ccccc1-c1nnc2sc(C3CCCCC3)nn12 | – | inactive: 2.26%
COc1cccc(NC(=O)COC(=O)c2nc3nccc(C)n3n2)c1 | – | inactive: 4.37%
CNC(=O)N(O)C1N(/N=C/c2ccccc2O)C(=S)SC1(C)C (stereo unspecified) | inconclusive: 26.9 µM [inhibitor, single point] | –
